Measured values published in paper PMC12136788.
This is one part of the list.

T1: UNK ZnF1-3 (human, UniProt Q9C0B0 31-174)
T1 sequence: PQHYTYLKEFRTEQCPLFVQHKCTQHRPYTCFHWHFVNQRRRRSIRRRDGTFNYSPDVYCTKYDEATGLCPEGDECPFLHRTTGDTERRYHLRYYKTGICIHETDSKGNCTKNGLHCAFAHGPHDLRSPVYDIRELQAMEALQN

B1: 64621807_64623798_901_3pUTR_ENSMUSG00000024588_ENSMUST00000025484|mouse|control|control (ssRNA)
RNA: GGGAGUUCUACAGUCCGACGAUCCCAUGACUUUGUGGACAGUGGCUCCUACCUCUUGGGGAUAGGGGUCCCCUCUGUUGACAACAGACAUCGGCAGGGAGUGGGCAGAAAACAGAAUGACCACCUCGCUUCUCUUCUCCUCUGCAACAGAGGAUUGAGCAUCA
B2: 41407170_41407290_2438_CDS_ENSMUSG00000021365_ENSMUST00000163623|mouse|control|control (ssRNA)
RNA: GGGAGUUCUACAGUCCGACGAUCCUUGAGCUGUUCGCAGAGCUGGUUGCUGGAGUUCCUGACUUUGUUGCGAAUGUCCUGGGCAGCCACCUGCCUUGUCAGAGUGUCUCCAAUGAACACCAGUUUGUGCGCACUAAGAAUGACCAACAGAGGAUUGAGCAUCA
B3: chr12:98991669:98991670:+_ENSG00000075415_ENST00000552981|hu_mus|FALSE|FALSE (ssRNA)
RNA: GGGAGUUCUACAGUCCGACGAUCGAAUCCAUUAAAUAUGCCUUUGUACUUCUGAGGGUCCACCUGCAUGCGGCACUUUACUAAGUCCAGGGGAACAACAGCAGUGUGUGUCAGCCCACAACUUAAGACCCCACCAAAGCCACACAACAGAGGAUUGAGCAUCA
B4: chr5:151042278:151042279:-_ENSG00000113140_ENST00000231061|hu_mus|motif|central (ssRNA)
RNA: GGGAGUUCUACAGUCCGACGAUCAUGACAGCCAUCUAGAUGUGAAAAAAAUCAAACCAAUUCACCAGUCUCACUUCCUCGGCGUUACAACCUUUUCUGUCUUCCUCUUGAGUCUCACUUUCCUGAAACAGCCUCCCAGUGCCUCAACAGAGGAUUGAGCAUCA
B5: chr1:6284582:6284583:-_ENSG00000116237_ENST00000343813|hu_mus|FALSE|FALSE (ssRNA)
RNA: GGGAGUUCUACAGUCCGACGAUCGAGGCUCAGAGUCCCUUGGAAUCUACACUGCUAUUUUUAUAAAAUUGGUGUGUAAAUGUGAUUAAAUGUAUGAGGAGCCGAGGGCAGAAGUCUUCAGAGCUAAUGCAGAUGCUCAUGCACCAACAGAGGAUUGAGCAUCA
B6: chr10:112362727:112362728:-_ENSMUSG00000074748_ENSMUST00000099276|mus_mus|motif|central (ssRNA)
RNA: GGGAGUUCUACAGUCCGACGAUCGAUCCCAGCAUGCGAUAAUGCCAGGUAGUGGCCCCUGGGCAUGCGAUGGUGGGAACGGAUUUACUGAAGAAAAAAGCACAAACCACAGAAAAUGUAAAGAACCCCUUCCCCCUAUACACACAACAGAGGAUUGAGCAUCA
B7: chr18:10010065:10010066:-_ENSMUSG00000047879_ENSMUST00000092096|mus_mus|motif|central (ssRNA)
RNA: GGGAGUUCUACAGUCCGACGAUCCAGAAUAAUAGGUGGGAUACUAGAAGAAGUUUUAUCCAUGGAAUCAAACAAAUCUCGGAGAGCUGCAGUAAUAUACUGUGCUGAAGCCAUUUCUCCUGAAGCUCUCAACGCACCUGCAUACAACAGAGGAUUGAGCAUCA
B8: 43183801_43183921_2363_3pUTR_ENSG00000136448_ENST00000258960|human|control|control (ssRNA)
RNA: GGGAGUUCUACAGUCCGACGAUCGAUGUUACAAGGAGGUCCAAGGGCCUCUUCAAACUGCAUCAUCCCAGGCAGUGGAAAAGCAAAAUCUCACAGGGGACUCAUCCCUAUAAGGUUGGCAACAACUGGCUAAAGAGCCCUUUUCAACAGAGGAUUGAGCAUCA
B9: chr5:143665068:143665069:-_ENSMUSG00000029580_ENSMUST00000100497|mus_hu|FALSE|FALSE (ssRNA)
RNA: GGGAGUUCUACAGUCCGACGAUCUACAUAAUUUACACGAAAGCAAUGCUAUCACCUCCCCUGUGUGGACUUGGGAGAGGACUGGGCCAUUCUCCUUAGAGAGAAGUGGGGUGGCUUUUAGGAUGGCAAGGGACUUCCUGUAACCAACAGAGGAUUGAGCAUCA
B10: 13808297_13816788_1590_CDS_ENSMUSG00000006586_ENSMUST00000098257|mouse|control|control (ssRNA)
RNA: GGGAGUUCUACAGUCCGACGAUCACUUGCUUUCCGGCCACAGUUCCAGCAACUCUCACUGGAGUCUUCCUGCUGGUUGAUGACUGCUAGAGCAUCUUCUGCUGCCUGCCUCUUCGCUUCAGCCACCGUGCGUUCCAUCUUGGCCAACAGAGGAUUGAGCAUCA
B11: chr3:193353255:193353256:+_ENSG00000198836_ENST00000392438|hu_hu|FALSE|FALSE (ssRNA)
RNA: GGGAGUUCUACAGUCCGACGAUCAAUCAAAGAUUUCUUAAGCUUUCUAUGAUGAAUGCCUUUGUCAUCUUUCUGCAAUACUAAUUUUCUCAAUUCUUUGUUCUCCUUUUCUAAUCGUUCCAAGAUUCUCUGAUACUUCAACUGCAACAGAGGAUUGAGCAUCA
B12: chr5:57752887:57752888:-_ENSG00000145632_ENST00000274289|hu_mus|FALSE|FALSE (ssRNA)
RNA: GGGAGUUCUACAGUCCGACGAUCCUUAAAGAAAUUCUUGGCUGGGCUUGACAAGUGGAAAUCUGGAACUGUGUGGCAACAGCUGGAAGAGAGUCUGUCCGGAGUGAAACCCUGCAGGAAGAAGUCAUGCCGAAUGAUGUCAUCCAACAGAGGAUUGAGCAUCA
B13: chr7:148072430:148072431:+_ENSMUSG00000025487_ENSMUST00000026560|mus_mus|FALSE|FALSE (ssRNA)
RNA: GGGAGUUCUACAGUCCGACGAUCAAAAGUAAGAGCCACAUUAGGAUCGGUCAUCUGUCUAACCACAUGGAGAAUUAUUUCUACCAGGGACAGAGGGUUUACCCUGUGCUCAAACUCACUGAUGAAGUUUUCAUAAAGCUUAAUCAACAGAGGAUUGAGCAUCA
B14: 49392233_49392453_1748_CDS_ENSMUSG00000069495_ENSMUST00000092123|mouse|control|control (ssRNA)
RNA: GGGAGUUCUACAGUCCGACGAUCAGAAGAAAAGUCUAUAGUUUGGGAAGAGCUUGAAAACCCGUUCAGCAUCUCAGGGUCUAUCUGUUUCAGGACGGGGUCAUGUUCUGUGGAUAUUCGGUCCAUUAUGACCCUGCCACCUCUCAACAGAGGAUUGAGCAUCA
B15: 66833482_66833694_1988_CDS_ENSG00000184588_ENST00000423207|human|control|control (ssRNA)
RNA: GGGAGUUCUACAGUCCGACGAUCCUUCGUUUCUACCAUUGUCUUCAGGUCUGCCAGCAGGCUCAUAUGUUUAGACAUAUCAGUUGCUAACACCAUGUCAAUAACCAUCUUCCUGAGUGUCUGACGCUGCUUCUUGGUGAGAUUCAACAGAGGAUUGAGCAUCA
B16: 112921203_112921323_768_CDS_ENSMUSG00000036862_ENSMUST00000078482|mouse|control|control (ssRNA)
RNA: GGGAGUUCUACAGUCCGACGAUCAUACCCUUGGGUUCCUAGGCGGCCGGCAUCUGCAUCACGAGCAGGCUCCAGUGGGUAACGUGUACCAAGAGCUGUAUGCUCAGGUAUCUGCAGGGCUGCCCGAGCCUGAGGGAAAGCUGGCAACAGAGGAUUGAGCAUCA
B17: chr9:37780659:37780660:-_ENSG00000107371_ENST00000396521|hu_hu|motif|central (ssRNA)
RNA: GGGAGUUCUACAGUCCGACGAUCGGUUCACCUGAAAAAACCCAUAGUUUUUUGCCUCAACUGACCUGUAAAAAAGUCCACCGGUAUCAACUUUCUGCCAAUCUGGAGAAGAUCUGUUUUCUUUGAUCUGACGUCAUGUGUUCACAACAGAGGAUUGAGCAUCA
B18: 64765874_64765994_1549_3pUTR_ENSMUSG00000059920_ENSMUST00000076991|mouse|control|control (ssRNA)
RNA: GGGAGUUCUACAGUCCGACGAUCUAGUCACUAAAUAAAAUGAAAACAUUACCUAAAGUUUCUAAGGCACACAGGCAUCUACAAUAUCUCAAGUGGGAUUUAUUUGGUGGACCGCAAUAAGUUCUCAGAACAUUUGCUGUAACUCAACAGAGGAUUGAGCAUCA
B19: chr20:57484439:57484440:+_ENSG00000087460_ENST00000306090|hu_mus|FALSE|FALSE (ssRNA)
RNA: GGGAGUUCUACAGUCCGACGAUCGCCGCCCACAUCGAACAUGUGGAAGUUGACUUUGUCCACCUGGAACUUGGUCUCAAAGAUUCCAGAGGUCAGGACACGGCAGCGAAGCAGGUCCUGGUCACUUGGCACGUAGUCGGCCUGCAACAGAGGAUUGAGCAUCA
B20: chr16:57473197:57473198:-_ENSG00000005194_ENST00000569370|hu_mus|FALSE|FALSE (ssRNA)
RNA: GGGAGUUCUACAGUCCGACGAUCGAUCCGGGCCAUCUCAGCCAGAACCUCAGCACUGUGCAGAGAGGUGCUUCCUGGGACUACACCCGACAGAAUGACAUCGAAGCUGGAUUCCUUAUGCGAAGACUGCAACAGCUGGGUGACCAACAGAGGAUUGAGCAUCA
B21: chr4:140556289:140556290:+_ENSMUSG00000036622_ENSMUST00000037055|mus_mus|mus_mus_mus_hu_False|48_68 (ssRNA)
RNA: GGGAGUUCUACAGUCCGACGAUCGAUGGAGCUCACCAGGCCCCCUUUUGCCGUGCAGAACCCUGUGCGAGUCACCACUGCCAGGACACGGGGUCCCACAUAGGCCCGGGCCUGCAAGAUGAGGGUCCCGCAGAAGAGUGUGUGCAACAGAGGAUUGAGCAUCA
B22: 89273121_89273405_2348_CDS_ENSG00000065243_ENST00000370521|human|control|control (ssRNA)
RNA: GGGAGUUCUACAGUCCGACGAUCAAACAUCUCAUUUGUGUUUUUAUAUUCAGCUAAAAGCACCUUUCCAAAAUGUCCUCUUCCCAAGACAGCACAACACCUGAAAUCUUGUAGAUUAAACUGAAACCUUUGCUGAGAUCUUCUCAACAGAGGAUUGAGCAUCA

target: T1, UNK ZnF1-3; experiment: nsRBNS (natural sequence RNA bind-n-seq); RBNS binding buffer (assumed for nsRBNS): 25 mM Tris pH 7.5, 150 mM KCl, 3 mM MgCl2, 0.01% Triton X-100, 500 ug/ml BSA, 20 U/ml SUPERase-In, 4 C; UNK is unkempt and MSI1 is Musashi-1; names of the RNAs are library labels; protein concentration not given here; high values mean tight binding

**Q.** With B1 as the binder, how does the binding signal read?
**A.** 1.02 enrichment R

**Q.** For B2, which binding signal is on record?
**A.** 0.988 enrichment R

**Q.** B3 was tested. Which binding signal did it give?
**A.** 1.12 enrichment R

**Q.** B4 was tested. Which binding signal did it give?
**A.** 1.28 enrichment R

**Q.** How did the binding signal turn out when B5 was run?
**A.** 1.51 enrichment R

**Q.** For B6, which binding signal is on record?
**A.** 1.58 enrichment R

**Q.** For B7, which binding signal is on record?
**A.** 1.21 enrichment R

**Q.** Which binding signal does the source give for B8 here?
**A.** 1.12 enrichment R

**Q.** How did the binding signal turn out when B9 was run?
**A.** 1.44 enrichment R

**Q.** B10 was tested. Which binding signal did it give?
**A.** 0.758 enrichment R

**Q.** For B11, which binding signal is on record?
**A.** 0.485 enrichment R

**Q.** For B12, which binding signal is on record?
**A.** 1.41 enrichment R

**Q.** B13 was tested. Which binding signal did it give?
**A.** 1.64 enrichment R

**Q.** Which binding signal does the source give for B14 here?
**A.** 0.574 enrichment R

**Q.** For B15, which binding signal is on record?
**A.** 0.476 enrichment R

**Q.** Which binding signal does the source give for B16 here?
**A.** 0.349 enrichment R

**Q.** How did the binding signal turn out when B17 was run?
**A.** 0.954 enrichment R

**Q.** How did the binding signal turn out when B18 was run?
**A.** 1.29 enrichment R

**Q.** How did the binding signal turn out when B19 was run?
**A.** 0.776 enrichment R

**Q.** With B20 as the binder, how does the binding signal read?
**A.** 1.09 enrichment R

**Q.** With B21 as the binder, how does the binding signal read?
**A.** 1.08 enrichment R

**Q.** Which binding signal does the source give for B22 here?
**A.** 1.22 enrichment R
